Assay results published in PubChem BioAssay AID1240 (Sanford-Burnham Center for Chemical Genomics, 2008).
Among all 50,000 compounds or so, about 800 (1.6%) showed an effect of 50% or more. This is one part of the list.

target: Bcl-2-like protein 10 (Homo sapiens) (UniProt Q9HD36); assay: TR3 peptide-Bcl-B binding displacers, biochemical primary FP assay, phenotype converters (AID 1240); conditions: GST-Bcl-B / FITC-TR3 peptide fluorescence polarization; stronger effect = higher value; compound at 3.75 mg/L;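 note: 0% = Bcl-B with tracer peptide and DMSO and 100% = tracer peptide lacking Bcl-B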
Sequence of UniProt Q9HD36 (Q9HD36 whole entry, looked up): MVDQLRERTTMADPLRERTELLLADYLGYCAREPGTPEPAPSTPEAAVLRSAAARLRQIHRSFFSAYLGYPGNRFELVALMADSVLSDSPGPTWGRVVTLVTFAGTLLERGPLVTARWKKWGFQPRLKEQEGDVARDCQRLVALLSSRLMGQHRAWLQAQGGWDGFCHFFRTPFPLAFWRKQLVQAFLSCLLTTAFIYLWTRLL

SMILES	displacement [%]
O=C1c2ccccc2NC(c2ccc(-c3ccccc3[N+](=O)[O-])o2)N1c1ccccc1 (configuration not stated)	16.8
O=C1C(C=NC2CC2)=C(O)c2ccccc21	23.8
C=CCN1C(=O)C(C)(C)N(C(C)=O)c2ccccc21	-4.8
COc1cc(/C=C2\C(=O)N(c3cccc(C(=O)O)c3)N=C2C)cc(I)c1O	-31.6
CSc1ccc(CN2CCN(S(=O)(=O)c3ccc(C)cc3)CC2)cc1	13.7
CCOc1cc(/C=C2\SC(=Nc3ccc(C)c(Cl)c3)NC2=O)ccc1O	-2.8
COc1ccc(/C=C2/SC(=S)NC2=O)cc1I	-25.1
CC(=O)c1ccc(N(C(C)=O)C2=C(N3CCCCC3)C(=O)c3ccccc3C2=O)cc1	13.1
O=C(CCC(=O)c1ccccc1)OCC(=O)c1ccc2c(c1)OCCO2	-9.4
O=C(NCCCCc1ccccc1)c1sc2ccccc2c1Cl	15.7
O=C1C2C(C(=O)N1Cc1cccnc1)C1C=CC2C12CC2 (configuration not stated)	-10.3
O=C(N/N=C\c1cc(I)cc(I)c1O)c1ccc([N+](=O)[O-])cc1	45.1
O=C1C=CC(=NS(=O)(=O)c2ccc(Cl)cc2)C=C1	2.1
COc1ccc(S(=O)(=O)Nc2cc([N+](=O)[O-])ccc2C)cc1	3.2
O=C1C(=O)N(c2ccccc2Br)C(=O)N1c1cccc(Cl)c1	5.7
Cn1c(O)c(C=NC(C)(CO)CO)c(=O)n(C)c1=S	-25.2
O=C(NCc1cccs1)c1cnn2c(C(F)(F)F)cc(-c3ccco3)nc12	-8.7
OCCNCCOc1cccc(Cl)c1Cl	2.8
COc1ccc(N(CC(=O)Nc2ccccc2Br)S(=O)(=O)c2ccccc2)cc1Cl	-1
CCOc1ccc(NC(=O)c2cc(-c3ccc(OC)cc3)nc3ccccc23)cc1	12.1
O=C1C2C3c4ccccc4C(c4ccccc43)C2C(=O)N1c1cc(C(F)(F)F)ccc1Cl (configuration not stated)	-0.1
O=C1CSC(c2ccc(Cl)cc2)N1c1ccc(Cl)c(Cl)c1 (configuration not stated)	18.2

SMILES	displacement [%]
O=C(Nc1cccc(Cl)c1)c1cccc(NC(=O)c2ccco2)c1	1.5
CC1CCN(C(=O)c2ccc(N(C)S(=O)(=O)c3ccccc3)cc2)CC1	-1.2
CCN(CC)c1ccc(/C=N/NC(=O)CCc2c(C)n[nH]c2C)cc1	-4.5
CC1CCN(CCOCCOc2c(Cl)cc(Cl)cc2Cl)CC1	-7.5
Cc1ccc(CN2CCN(/N=C/c3ccc(C(=O)O)cc3)CC2)cc1	16.4
CC(=O)Nc1ccccc1NC(=O)c1ccccc1F	-14.1
O=C(COc1ccc(Cl)cc1)N1CCN(C(=O)COc2ccc3ccccc3c2)CC1	-9.7
O=C1NC(=S)SC1=C1CCCCC1	2.6
O=C(NCCc1ccccc1)c1cncc(Br)c1	-3.2
Cc1[nH]n(-c2ccccc2)c(=O)c1C(=O)C(F)(F)F	12.1
COCCNS(=O)(=O)c1ccccc1[N+](=O)[O-]	-7.8
CCC12CN3CC(CC)(CN(C1)C3c1ccccc1)C2=O (configuration not stated)	13.5
COc1ccc(-c2nnc(-c3ccc(Cl)cc3)o2)cc1OC	30.9
COc1cc([N+](=O)[O-])ccc1-c1ccc(/C=C2\C(=O)NC(=S)N(c3ccc(Cl)cc3)C2=O)o1	16.2
O=C1CC(NCc2ccc3c(c2)OCO3)C(=O)N1c1ccc(Cl)cc1 (configuration not stated)	5.2
O=C(O)c1cccc(-c2ccc(/C=C/c3cc(C(F)(F)F)[nH]c(=O)n3)o2)c1	-10
O=S(=O)(c1ccc(Br)cc1Br)N1CCOCC1	-10.4
O=C(O)CCC(=O)N1N=C(c2c(-c3ccccc3)c3cc(Cl)ccc3[nH]c2=O)CC1c1cccc([N+](=O)[O-])c1 (configuration not stated)	10.3
O=c1[nH]c(=S)[nH]c(O)c1C=Nc1ccc(Cl)c(Cl)c1	-7
COc1cc(N)c(Cl)cc1NC(=O)c1ccc(Cl)cc1	-6.6
Fc1ccc(-c2nnc(-c3ccc(Cl)cc3)o2)cc1	5.8
O=C(CN(c1cccc(Br)c1)S(=O)(=O)c1ccccc1)Nc1cccc2ccccc12	4

SMILES	displacement [%]
CCCNC(=O)c1ccccc1C(=O)NCCC	15.4
O=C(O)CCCNC(=O)/C(=C\c1ccc(Cl)cc1)NC(=O)c1ccccc1	-7.8
CCOC(=O)N1CCN(C(=O)c2ccc(N(Cc3ccc(Cl)cc3)S(C)(=O)=O)cc2)CC1	-10
CCOC(=O)C1=NNC2C(=O)N(c3cc(OC)ccc3OC)C(=O)C12 (configuration not stated)	3.1
O=C(N/N=C\c1ccc(F)cc1)C(Nc1cc([N+](=O)[O-])ccc1O)c1ccccc1 (configuration not stated)	-8.5
COc1ccc(CCN2C(=O)CSC2c2ccc([N+](=O)[O-])cc2)cc1OC (configuration not stated)	-4.5
CC(/C=N\NC(=O)Cn1nnc2ccccc21)=C/c1ccc(C(C)C)cc1	-6.7
O=C(COc1ccc2ccccc2c1)NCCc1ccccc1	-16.6
COc1cc(/C=N/n2cnnc2)ccc1OCCSc1ccc(C)cc1	0.6
O=C(CCNc1ccc(Cc2ccncc2)cc1)c1cccc([N+](=O)[O-])c1	-6.2
Cc1ccc2c(C)nc(Nc3nc(O)c(C)c(=O)[nH]3)nc2c1	2.3
COc1ccc(S(=O)(=O)N(CC(=O)Nc2cccc(Cl)c2)Cc2ccccc2)cc1OC	15.9
CCOc1ccc(-n2nc3ccc(NC(=O)/C=C/c4ccco4)cc3n2)cc1	11.2
CC(Oc1ccccc1)C(=O)Nc1cccc(C(=O)Nc2ccccc2Cl)c1 (configuration not stated)	2.9
COc1ccccc1/C=N/NC(=O)C(=O)NCc1ccccn1	-10.6
CC(C(=O)Nc1ccc(NC(=O)c2cccc(Cl)c2)cc1)(c1ccccc1)c1ccccc1	-5.2
CCOC(=O)C1=C(C)N=c2s/c(=C\c3ccc(-c4ccccc4C(=O)O)o3)c(=O)n2C1c1cc(OC)ccc1OC (configuration not stated)	-1.1
O=[N+]([O-])c1cccc(-c2n[nH]c(-c3ccccc3)c2-c2nc3ccccc3[nH]2)c1	5.1
CCOC(=O)c1c(NC(=S)Nc2ccccc2)sc(C)c1C	12.2
Cc1onc(-c2ccccc2Cl)c1C(=O)N1CCN(Cc2ccc3c(c2)OCO3)CC1	-3.3
Cc1ccc(NC(=O)c2ccc(Cl)cc2)cc1Cl	-0.2
CSc1nc2ccc(N3C(=O)C4CCCCC4C3=O)cc2s1 (configuration not stated)	4.6

SMILES	displacement [%]
CC1=NN(c2nc(-c3ccc(Cl)c(Cl)c3)cs2)C(=O)C1	11.4
Cc1nc(C)c(/C(O)=C/c2nc3ccccc3[nH]c2=O)s1	61.6
CCCc1cc(=O)n2[nH]c(-c3cccs3)cc2n1	12
COc1ccc(/C=C/C(=O)O)cc1S(=O)(=O)N1CCCCCC1	2.4
O=C(Nc1ccc(Cl)cc1)N1CCCc2ccccc21	11.3
O=C(Nc1ccc(Cl)c(-c2nc3ccccc3s2)c1)c1ccc([N+](=O)[O-])o1	-1.9
COc1ccc(N(CC(=O)Nc2cccc(Br)c2)S(=O)(=O)c2ccc(C)cc2)c(OC)c1	-1.5
COc1ccc(OCC(=O)Nc2ccc(S(=O)(=O)N3CCCCC3)cc2)cc1	-6.9
O=C(O)CSc1nnc(-c2ccc(Cl)cc2Cl)n1-c1ccc(Cl)cc1	3.9
O=S1(=O)CCC(NC(=S)N/N=C/c2ccc(Cl)c(Cl)c2)C1 (configuration not stated)	0.4
COc1cccc(C(=O)Nc2ccc3c(c2)OCO3)c1	-8.2
CCOC(=O)c1ccc(NC(=O)C(=O)NCCCOC)cc1	-5.9
O=C1/C(=C\c2ccc(-c3ccc(Cl)c(Cl)c3)o2)SC(=S)N1Cc1ccco1	-19.5
CC1CC(Nc2ccccc2)c2ccccc2N1C(=O)c1cccc2ccccc12 (configuration not stated)	-1.7
O=C(CSc1ccccn1)Nc1ccc2nc(SCC(=O)Nc3ccccc3F)sc2c1	-20.6
COC(=O)c1ccc(N2C(=O)CC(SCCN)C2=O)cc1 (configuration not stated)	-6.8
COc1cccc(/C=N/NC(=O)CC#N)c1	4.8
CCOC(=O)c1ccc2c(c1)C1C=CCC1C(c1ccc(Cl)cc1Cl)N2 (configuration not stated)	-3.9
COc1cc(/C=N/NC(=O)/C(=C\C=C\c2ccccc2)NC(=O)c2ccccc2)cc(OC)c1O	-2.3
O=C(N/N=C\c1ccc(OC(=O)c2ccc3c(c2)OCO3)cc1)c1ccc([N+](=O)[O-])cc1	6.9
Cc1cccc(NC(=O)CCC(=O)N/N=C/c2cccs2)c1	4.2
Cc1ccc(Cl)cc1N(Cc1ccc(C(=O)N(C(C)C)C(C)C)cc1)S(=O)(=O)c1ccccc1	-2.8

SMILES	displacement [%]
COc1ccc(C2=NCCNC(C(F)(F)F)=C2)cc1	-4.5
CCOc1ccccc1/C=N/NC(=O)c1cccc(Cl)c1	-7.2
Cc1cc(C=C2C(=O)NC(=O)NC2=O)c(C)n1-c1ccc(N2CCOCC2)cc1	126
COC(=O)c1ccc(NC(=S)NC(=O)c2ccc(OC)cc2)cc1	14.9
Cc1ccccc1C(=O)N1c2c(C)cccc2C(Nc2ccccc2)CC1C (configuration not stated)	11
C=CCc1ccccc1OCc1nnc(NC(=O)Nc2ccccc2)s1	1.2
CCOc1ccccc1/C=C1/C(=O)NC(=O)N(c2ccc(C)cc2)C1=O	-7.8
COC(=O)COc1ccc(/C=C2\C(=O)NC(=O)N(c3ccc(Cl)cc3)C2=O)cc1OC	-14.2
O=C(c1ccc([N+](=O)[O-])cc1)N1CCN(C(=O)c2ccccc2F)CC1	12.3
COc1cc(/C=C/C(=O)c2ccc(F)cc2)cc(OC)c1OC	-6.9
Cc1cc(OCC(F)(F)C(F)(F)C(F)(F)C(F)F)nc(N)n1	3
O=C(CSc1nnc(-c2ccc(Cl)cc2Cl)o1)NC1CCCCC1	-7
COc1ccccc1C(=O)Nc1nc(-c2ccccc2)c(-c2ccc([N+](=O)[O-])cc2)s1	1.2
CCOC(=O)c1c(C)n(-c2ccc(OC)cc2)c2ccc(O)cc12	7.9
COc1ccc(/C=N/N(C)C2=NS(=O)(=O)c3cc([N+](=O)[O-])ccc32)cc1	7.6
CCOc1ccc(N(CC(N)=O)S(=O)(=O)c2ccc(SC)cc2)cc1	6.4
COc1ccccc1N/N=C(/C#N)C(N)=S	7.8
O=C(Nc1ccc(F)cc1)c1sc2cc(Cl)ccc2c1Cl	10.4
O=C(CCN1C(=O)c2ccccc2C1=O)N1CCN(c2ccccc2)CC1	-4.2
